{"source": "ChEMBL document CHEMBL4888484", "about": "“Replenishing the malaria drug discovery pipeline: Screening and hit evaluation of the MMV Hit Generation Library 1 (HGL1) against asexual blood stage Plasmodium falciparum ,using a nano luciferase reporter read-out” (2022)", "note": "The campaign covered roughly 150,000 compounds. About 540 (0.36%) showed an effect of 50% or more. This is one part of the list.", "data": [{"system": "Plasmodium falciparum", "test": "Primary screen in NF54 nanoGlo assay, in single point, at 2uM, 72h; a lower Z score goes with more inhibition", "type": "functional, Erythrocyte", "conditions": "timepoint 72 hour", "units": {"% Inhibition": "%"}, "values": [{"smiles": "O=C(O)c1c(S(=O)(=O)NCCOc2ccccc2)sc2c1CCNC2", "% Inhibition": -4, "Z score": 0.61}, {"smiles": "C[C@H](OC(=O)C1(Cc2nc3ccccc3s2)CCCC1)C(=O)N1CCCC1", "% Inhibition": 26, "Z score": -3.33}, {"smiles": "COC[C@@](C)(O)CNC(=O)C(=O)NCCc1ccccc1", "% Inhibition": -5, "Z score": 0.8}, {"smiles": "C[C@@H](C(=O)N1CCCC1)S(=O)(=O)c1cccc(Cl)c1", "% Inhibition": 0, "Z score": -0.07}, {"smiles": "COc1ccc(OC)c(S(=O)(=O)N[C@H]2CCc3nn(CC4CC4)c(=O)n3CC2)c1", "% Inhibition": 29, "Z score": -3.91}, {"smiles": "N#Cc1nccnc1NC1c2ccccc2CC1O", "note": "(centres undefined)", "% Inhibition": -5, "Z score": 0.66}, {"smiles": "CC1CN(C(=O)OC(C)(C)C)CC(C)N1C(=O)C1CCOC1", "note": "(centres undefined)", "% Inhibition": -8, "Z score": 1.52}, {"smiles": "CC(C)c1oncc1NC(=O)CS(=O)(=O)C(C)(C)C", "% Inhibition": -14, "Z score": 1.46}, {"smiles": "Cc1cnc(C(=O)N[C@@H](C)Cn2ccnc2)cn1", "% Inhibition": -6, "Z score": 1.06}, {"smiles": "CO[C@H]1CCN(c2ccc(C(=O)NCCC3=CCCCC3)cc2)C1", "% Inhibition": -7, "Z score": 1.33}, {"smiles": "CC(C)C[C@H](NS(=O)(=O)c1cccc(C#N)c1)C(=O)N(C)C", "% Inhibition": 3, "Z score": -0.41}, {"smiles": "Cn1c(CO)nnc1C1CCN(C(=O)[C@H]2CCOc3ccccc3C2)CC1", "% Inhibition": -9, "Z score": 0.92}, {"smiles": "O=C(Nc1n[nH]c(C2CC2)n1)c1cc(-c2ccccc2)n[nH]1", "% Inhibition": -4, "Z score": 0.55}, {"smiles": "Cc1cccc(CCC(=O)N2CC3CC2CO3)c1", "note": "(centres undefined)", "% Inhibition": -23, "Z score": 2.66}, {"smiles": "CCCCNC(=O)N1CC2(CC(=O)Nc3nccn32)C1", "% Inhibition": 14, "Z score": -2.6}, {"smiles": "COc1cc(CN2CC(O)C2)ccc1OC[C@@H](O)CN1CCCCCC1", "% Inhibition": -1, "Z score": 0.2}, {"smiles": "C=Cc1ccc(-c2ccc(C(=O)NC(C)(C)CCC(=O)NC)cc2)nc1", "% Inhibition": -2, "Z score": 0.34}, {"smiles": "CN(C)C(=O)[C@@]12CN(C(=O)CCc3ccccc3)C[C@@H]1CN(C(=O)c1ccncc1)C2", "% Inhibition": -16, "Z score": 2.19}, {"smiles": "COC(=O)c1ccc(Oc2cccc(NC(=O)c3ccccc3F)c2)cc1C(=O)OC", "% Inhibition": 0, "Z score": -0.06}, {"smiles": "CC(C)(C)n1c(=O)c2ccc(F)cc2n1CC(=O)Nc1ccc(Cl)cc1", "% Inhibition": -3, "Z score": 0.4}, {"smiles": "Cc1ccc(NC(=O)N2CCC(C(=O)C3CC3)CC2)c(C)c1", "% Inhibition": -2, "Z score": 0.28}, {"smiles": "CC[C@H](NCc1cc(C)c(OC(C)=O)c(C)c1)c1nc(C)no1", "% Inhibition": -3, "Z score": 0.41}, {"smiles": "O=C1N[C@H]2C[C@@H](C(=O)NC[C@H]3O[C@H](CCOc4cc(-c5ccccc5)ccc41)CC[C@@H]3O)N(C1CCOCC1)C2", "% Inhibition": 35, "Z score": -3.98}, {"smiles": "COc1ccc(-c2noc(-c3nnn4c3CO[C@H](c3ccc(C)cc3C)C4)n2)cc1", "% Inhibition": -16, "Z score": 1.51}, {"smiles": "Cc1nc[nH]c1CN1C[C@H]2CC[C@@H](C1)N(C(=O)CCc1cccnc1)C2", "% Inhibition": 8, "Z score": -1.68}, {"smiles": "O=C1CC[C@@]2(CCCO2)CCN1Cc1ccc(-c2ccccc2)cc1", "% Inhibition": -3, "Z score": 0.62}, {"smiles": "CC(C)(CC(=O)O)CC(=O)N1C2CCC1CC(O)(Cc1ccc(F)cc1F)C2", "note": "(centres undefined)", "% Inhibition": -1, "Z score": 0.18}, {"smiles": "Cc1noc2ncc(NC(=O)c3ccc([C@H]4CCCOC4)cc3)cc12", "% Inhibition": -7, "Z score": 0.96}, {"smiles": "CCNc1ncc(C(=O)N(C)CCc2ncc(C)s2)s1", "% Inhibition": -11, "Z score": 2.14}, {"smiles": "COCCn1c(=O)c(CNCc2ccccc2OC)cc2ccc(F)cc21", "% Inhibition": 0, "Z score": -0.03}, {"smiles": "CNC(=O)[C@@H]1C[C@@H](NCc2cccc(C(F)(F)F)c2)CN1CC(C)C", "% Inhibition": 13, "Z score": -1.75}, {"smiles": "COc1ccc(-c2ccc(CNC(=O)N3CCNC(=O)C3)s2)cc1", "% Inhibition": 1, "Z score": -0.13}, {"smiles": "CCOc1cc(CN2CCN3C(=O)N(CC)C(=O)[C@@H]3C2)ccc1OC", "% Inhibition": -17, "Z score": 1.89}, {"smiles": "Cc1ccccc1Oc1nc(N(C)Cc2ccccc2)nc2c1CN(C(=O)c1ccccc1)CC2", "% Inhibition": 3, "Z score": -0.44}, {"smiles": "CCCCC(=O)Nc1ccc(NC(=O)C2(C)CCCC2)cc1Cl", "% Inhibition": -21, "Z score": 2.35}, {"smiles": "O=C(Nc1nncs1)[C@H]1CCCN(S(=O)(=O)c2ccc(F)c(Cl)c2)C1", "% Inhibition": 10, "Z score": -1.41}, {"smiles": "CCOc1ccc(CNC(=O)c2ccc(-c3c(-c4ccc(C)cc4)ncn3C3CCCC3)o2)cc1", "% Inhibition": -6, "Z score": 0.96}, {"smiles": "COc1cccc(-c2nnc(NCc3ccc(C)o3)o2)c1OC", "% Inhibition": 33, "Z score": -3.67}, {"smiles": "C[C@@](CC(=O)O)(NC(=O)Cc1ccon1)c1ccc(F)cc1", "% Inhibition": -8, "Z score": 1}, {"smiles": "CC1CC(NC(=O)[C@H]2OC[C@H]3COCC[C@H]32)=NN1Cc1ccccc1", "note": "(some centres undefined)", "% Inhibition": 0, "Z score": -0.03}, {"smiles": "CCOC(=O)N1CCN(C(=O)[C@H]2CCCN(c3cc4c(nn3)CCC4)C2)CC1", "% Inhibition": -1, "Z score": 0.16}, {"smiles": "Nc1noc(CCNC(=O)c2cnn(Cc3ccccc3)c2)n1", "% Inhibition": -10, "Z score": 1.08}, {"smiles": "Cc1sc2ncnc(NC[C@H](C)Cn3cccn3)c2c1C", "% Inhibition": -17, "Z score": 2.24}, {"smiles": "C[C@@H](c1cccs1)N(C)C(=O)c1ccccc1-n1cnnc1", "% Inhibition": -5, "Z score": 0.89}, {"smiles": "CC(C)c1nc(C(=O)Nc2[nH]nc(C3CC3)c2C#N)cs1", "% Inhibition": -25, "Z score": 3.79}, {"smiles": "Cc1csc(C(=O)N2CC[C@H](OC(=O)N(C)C)C2)c1Cl", "% Inhibition": -4, "Z score": 0.59}, {"smiles": "O=C1CN(C(=O)c2ccccc2)S(=O)(=O)c2ccccc21", "% Inhibition": -32, "Z score": 3.8}, {"smiles": "Cc1nc(C(=O)N2CC3C(C2)C3(C)C)c(=O)[nH]c1C", "note": "(centres undefined)", "% Inhibition": -11, "Z score": 2.02}, {"smiles": "CC(=O)N1CCN(C(=O)CC(=O)N2CCn3cccc3[C@H]2c2cccc(Cl)c2)CC1", "% Inhibition": 0, "Z score": 0.05}, {"smiles": "CCN(CC)C[C@H](O)COc1cc(CNC2(c3ccccc3)CC2)ccc1OC", "% Inhibition": -4, "Z score": 0.58}, {"smiles": "CC(C)(C)NS(=O)(=O)c1ccc2c(c1)C(C)(C)CN2CC(=O)N1CCCC1", "% Inhibition": -11, "Z score": 1.21}, {"smiles": "CC(=O)N1CCO[C@@H](Cn2ccnc2-c2ccc(-c3ccccc3Cl)o2)C1", "% Inhibition": 11, "Z score": -2.11}]}]}
